Assay [1] has as its system Colletotrichum orbiculare. Particulars: 250 ppm spray, 2.5 ml/pot; investigated 6 to 10 days after inoculation.
Assay [2] has as its system Phytophthora infestans. In kind it is in vivo. The settings on record: class of control value, Table 7.
Assay [3] relates to Magnaporthe grisea. It is filed as in vivo. The settings on record: class of control value, Table 7.

For `CCn1c(-c2c(F)cccc2F)c(-c2ccsc2C)cc(Br)c1=O` [Compound 444], the “Test H control value (anthracnose on cucumber)” value (shortened to “Test H control value”) in assay [1] is reported as “L (L shows the control value of 50% or less)”. In addition, the “Test F control value (late blight on tomato)” value (shortened to “Test F control value”) in assay [2] was “L (L shows the control value of 50% or less)”.

For the molecule `Cn1c(-c2ccc(F)cc2Cl)c(-n2cc(Cl)cn2)cc(Br)c1=O` [Compound 453], the “Test A control value (blast on rice)” value in assay [3] was “H (H shows the control value more than 50%)”. Besides, the “Test H control value” value in assay [1] is “H (H shows the control value more than 50%)”. In addition, in assay [2], the “Test F control value” value is given as “L (L shows the control value of 50% or less)”.

As for `CCn1c(-c2ccc(F)cc2Cl)c(-c2ccsc2Cl)ccc1=O` [Compound 458], the “Test A control value (blast on rice)” value in assay [3] was “H (H shows the control value more than 50%)”. For the same molecule, the “Test H control value” value in assay [1] is recorded as “H (H shows the control value more than 50%)”. For the same molecule, in assay [2], the “Test F control value” value is recorded as “L (L shows the control value of 50% or less)”.

Consider `Cn1c(-c2c(F)cccc2F)c(-c2ccsc2Br)ccc1=O` [Compound 456], for which the “Test A control value (blast on rice)” value in assay [3] is “H (H shows the control value more than 50%)”. Also, the “Test H control value” value in assay [1] is on record as “H (H shows the control value more than 50%)”. Besides, the “Test F control value” value in assay [2] is “L (L shows the control value of 50% or less)”.

The values above are taken from US11178870B2 (priority 2017, dated 2021).
